Sequences with one replicate were seen in a single cluster, so their values are uncertain.
System: ATP
Assay: switch fluorescence ratio, 500 uM ATP over buffer (Cy3 cluster intensity, sum of 5 cycles each) (fold (ratio)); higher = stronger signal-on switching upon ATP binding; sequences stand for … in TCGTCGGCAGCGTCAGATGTGTATAAGAGACAGTTTTTTTTTTTTTTTTTTTTTTTTT…TC
Conditions: aptamer strand: ATP DNA aptamer (quencher-CACCTGGGGGAGTATTGCGGAGGAAGG + anchor), 100 nM annealed; ATP concentration: 500 uM; one replicate
Summary of the method: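 Exposure to 500 uM ATP lasted 15 min at 22 °C before imaging, and a selection-buffer image was taken beforehand, for Cy3-labelled switching-strand clusters on a modified Illumina MiSeq flow-cell annealed to 100 nM quencher-labelled ATP aptamer. Five buffer/ATP cycles were run with NaOH stripping and re-annealing between them. The fluorescence ratio per cluster is summed target-cycle over summed buffer-cycle Cy3 intensity, averaged per switch-domain sequence. Clusters outside 100-1000 RFU were excluded.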

Sequence	switch fluorescence ratio
GGGATGCACT	1.03
TGCGACCGCT	1.05
GTGGGCCGTT	1.08
ATTCGAAGGG	0.977
GCTGTCCATG	0.968
AGCCACGGGA	1.08
ATAGCGGTG	0.952
GTAAATTCA	0.996
TCCGAGGTAA	5.45
TTTTCGAGGC	0.962
AGTGTGGCTG	1.01
CGGGTCCAGG	1.41
GGACCGGGG	0.949
CAAGGAAATA	0.952
GGAGTGAATT	0.985
CATGGTGAGA	1.02
TACGGAGTAA	1.11
TTCTCTTTAA	0.963
GGGCCGAGAT	0.998
TGGGTTGCCT	0.95
TTTAAATTCA	1.03
GAAAAAATAT	0.951
AAGCGTCTG	0.936
AGTGTGTCGA	0.981
TTTCACGATT	0.969
CCCATTGAGG	1.03

Sequence	switch fluorescence ratio
CGTGCCACCG	1.03
GGCGTCTCAC	1
AAGAGAGCAG	0.974
TCATTTTGA	0.975
AGAAACTCAA	1.02
TTGTGCGTTA	1.01
GTCGTAAGAT	1.01
TGTATTAGGC	0.985
CGTACAGGGC	1.12
TGGGTTGCCC	1.01
CAGCAGGTTA	1.09
CAGGATGAAA	1.02
GGACTGGCCG	1.01
CGGAAGGTT	0.992
ATCACGTTTC	1.07
TTTTACCAGT	0.979
CGCTGGGGG	0.994
CTCAGCGC	1.05
TATGCCAACG	1.03
TATAGGATGT	0.982
CCTAGTTGC	1.04
AAGGTACGAT	1.01
GACAGGGTTC	1
GGCGCAAATT	1.02
GGAGGTGTCC	1.02
TGTCCAACAC	1.02

Sequence	switch fluorescence ratio
TGTCATTAGG	0.979
TCAGATGTTT	0.973
TCGTACCGCC	1.11
AAGCCTATGA	0.96
GGGAGCAATC	2.63
ATTTATAGTC	1
TGGGCTAGGA	1.01
GCCACTGGTA	1.03
CGGAAGAGAA	1
ATCTCAGCCT	1.14
TGTAGCTGGT	0.972
CTGGTCTGT	0.968
CAGCTACGGG	1.07
GTACATTAGG	1.08
TGATTTGAGT	1.03
TTGCTTTT	0.984
TTCCTGGCGA	1.03
TCGTAGACAC	1.06
AACATAGGCT	0.97
GTCATAGCCT	1.06
ATCGCCGAGA	1.03
CGTAGGTCAG	0.996
AGGGTCGAGA	0.962
CAGCTGCAC	2.81
CCCATTAGCA	1.16
TGCACAAGGG	1.02

Sequence	switch fluorescence ratio
TTGATGACAG	1.05
ATATCCGCTA	4.24
CCGGGCTAAC	1.65
TACAACTCAT	1.02
TGACCACG	1.01
CTGCAGGGTA	1.11
AGGTGTAACT	1.01
TGATCTTGGT	1.03
TGGGAGACTC	1.01
TAAGGCTTCA	1.1
GATCGAATCA	1
TGTGAGATGC	0.937
AGTGGGTTTG	0.991
GTTACGGAGC	1.37
AATTACCTTT	1.07
GTCTTTACGG	1.02
TAAGGCAGTC	1.05
CTGTTTTTAA	1.02
ATACCTCTGG	0.974
TTCAGACAC	1.06
CCGTTGAGTA	1.02
CGCCAAGAGG	1.15
AGTTTTCTAA	0.992
GATGTTGGCC	1.02
TGACTGGAAC	1.04
TAAGTCTGCC	0.959

Sequence	switch fluorescence ratio
CGAGCTAACT	1.46
ACTGCTATTT	1.14
GGCAAGGGGC	1.02
GTACTGGGGA	0.957
TCACTGGATC	1.1
TGGGAACTTA	0.985
TTCCATGAGC	0.979
CAAGGTAAGA	1.03
CATTATAGCT	0.999
GATGCGGTCT	1.03
CGTTAATGGC	0.982
AGGCATAAAT	1.02
ATCGCTGTCT	1.02
TCCTCTTTTT	1
AATAGGCCAC	1.03
GTTCACCCAA	1.08
CTACGAAACG	1.11
ATTCTGGATA	1.01
CTTATCATCC	1.03
CAACTTCAGT	1.01
ACTGTCCTCA	1.05
GTGACCGGGT	1.09
ATAGTTGATA	1
AGCATTGGTG	1.03
TTTACTGAAT	1.01
AGACGTTATG	0.992

Sequence	switch fluorescence ratio
CTGCGGTATG	1.05
TAAATTAGAC	1.04
TGAGGAAAAC	1.01
ATCGCCGGTG	0.984
AATCATTCAT	1
AATCCGGTGT	1.09
CGCCAACTAG	1.17
ATCATGAATC	1.03
GGTTTAACGT	1.02
CCATGGTTGG	1.02
ATGGAGTTT	1
AGTTGTCGTA	0.99
CGTGGCATG	0.939
TTAAACGGCT	1.03
AATGCAGCAG	0.992
GAAGGAGTTC	1.02
ACGTGTGGTC	1
TCGTTCGTGT	0.966
GCATAGTGGC	0.981
ATACGCTCCA	1.03
TACGAGACTA	1.09
TGAAAATGAT	0.984
TGGCCCCGGA	1.41
